# Results published in paper PMC4336329 (PLoS ONE, 2015).
# Hit rate of the full screen: of about 310,000 compounds, about 14,000 (4.5%) showed an effect of 50% or more. Effects have a minus sign here. The list shows a part of the results.
# Target: human ether-à-go-go-related gene (hERG) potassium channel (human, UniProt Q12809)
# Experiment: primary screen, population patch clamp on CHO cells stably expressing hERG
# 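Further: peak tail current of the secondary pulse compared with the same well before compound.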
# Sequence of human ether-à-go-go-related gene (hERG) potassium channel (Q12809 whole entry, looked up): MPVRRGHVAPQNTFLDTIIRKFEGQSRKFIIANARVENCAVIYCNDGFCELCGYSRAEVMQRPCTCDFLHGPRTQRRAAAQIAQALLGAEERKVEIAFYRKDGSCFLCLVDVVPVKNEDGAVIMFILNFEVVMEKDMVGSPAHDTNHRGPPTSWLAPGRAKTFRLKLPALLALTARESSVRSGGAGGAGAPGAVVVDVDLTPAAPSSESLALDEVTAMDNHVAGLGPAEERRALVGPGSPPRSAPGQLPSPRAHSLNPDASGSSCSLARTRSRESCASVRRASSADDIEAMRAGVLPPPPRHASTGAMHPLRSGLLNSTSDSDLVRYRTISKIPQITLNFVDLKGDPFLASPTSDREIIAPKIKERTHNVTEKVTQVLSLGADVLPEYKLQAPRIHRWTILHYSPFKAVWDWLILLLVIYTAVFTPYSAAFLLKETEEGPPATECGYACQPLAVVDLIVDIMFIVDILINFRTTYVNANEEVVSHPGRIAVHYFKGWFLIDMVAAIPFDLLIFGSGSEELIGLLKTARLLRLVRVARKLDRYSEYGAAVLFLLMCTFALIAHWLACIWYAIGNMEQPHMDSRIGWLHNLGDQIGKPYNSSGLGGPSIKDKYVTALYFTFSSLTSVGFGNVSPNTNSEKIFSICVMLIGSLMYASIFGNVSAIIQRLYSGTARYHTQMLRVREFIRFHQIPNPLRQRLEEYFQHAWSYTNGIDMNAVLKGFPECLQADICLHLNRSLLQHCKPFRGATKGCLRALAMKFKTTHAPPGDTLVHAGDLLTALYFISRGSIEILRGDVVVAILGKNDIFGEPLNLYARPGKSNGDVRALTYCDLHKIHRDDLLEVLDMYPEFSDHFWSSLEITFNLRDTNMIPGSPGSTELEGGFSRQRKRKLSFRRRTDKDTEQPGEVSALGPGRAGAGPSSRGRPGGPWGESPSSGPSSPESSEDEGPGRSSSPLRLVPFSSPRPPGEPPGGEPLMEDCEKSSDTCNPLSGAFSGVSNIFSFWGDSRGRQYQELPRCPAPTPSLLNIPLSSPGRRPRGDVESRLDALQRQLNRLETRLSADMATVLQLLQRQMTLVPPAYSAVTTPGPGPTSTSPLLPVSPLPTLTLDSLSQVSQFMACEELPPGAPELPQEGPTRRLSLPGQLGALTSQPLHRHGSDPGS
row,SMILES,"hERG current change (%, negative = inhibition) at 10uM [%]"
1,O=C(CSc1ccc(Br)cc1)N1CCN(C(=O)c2ccco2)CC1,-62.4
2,Cc1ccc2[nH]c(C)c(CCNCc3cccnc3)c2c1.Cl,0.252
3,Cc1ccc(N(Cc2ccccc2)C(=O)c2cccc(S(=O)(=O)N3CCOCC3)c2)cc1,-74.5
4,COc1cc2c(cc1NC(=O)c1cncc(Br)c1)oc1ccccc12,19
5,O=C(OCC(=O)N1CCCCC1)c1c[nH]c2ccccc12,-7.04
6,O=C1CCN(C(=O)CNC(=O)Cc2ccccc2)CC1,16.8
7,CCCCc1sc(-c2c(C#N)c(N)nc3c2CCCCC3)cc1[N+](=O)[O-],-18.8
8,CC1=NC(C(F)(F)F)(C(F)(F)F)C(C#N)=C(C)N1,5.98
9,O=C(Nc1ccccc1)Nc1cccc(C(F)(F)F)c1,17.4
10,Clc1ccc(-c2nc3ccc(Cl)cn3c2CN2CCCCC2)cc1,5.11
11,CC(C)(C)C(=O)Nc1cc(NC(=O)C(C)(C)C)cc(C(=O)Nc2c[nH]c(=O)[nH]c2=O)c1,-1.81
12,CSc1cccc(NC(=O)COc2cccc3ccccc23)c1,13.5
13,COc1cc(C=C2C(=O)NC(=O)NC2=O)cc(OC)c1OC,22.1
14,N=c1oc2ccc(Br)cc2cc1C(=O)NC1CCCCCC1,-12.6
15,CC(C)CNC(=O)COc1ncnc2ccccc12,19.2
16,O=C(/C=C/c1cccc([N+](=O)[O-])c1)N1CC[C@@]2(O)CCCC[C@H]2C1,-18.4
17,CCOC(=O)NNC(=O)NCCCCCCNC(=O)NNC(=O)OCC,10.9
18,COc1ccc(NS(=O)(=O)c2cccc(C(=O)N3CCN(Cc4ccc5c(c4)OCO5)CC3)c2)cc1,-76.8
19,CCn1cc(C(=O)N2CCc3ccccc32)c(=O)c2cc(S(=O)(=O)N(C)C3CCCCC3)ccc21,-47.7
20,Cc1onc(-c2ccccc2)c1C(=O)Oc1cccnc1,-18.7
21,O=c1oc2ccccc2c(O)c1Cc1cc(Cl)c2cccnc2c1O,2.42
22,O=C(NCc1ccccc1)C1C2C=CC3(CN(Cc4cccnc4)C(=O)C13)O2 (stereo not drawn),10

row,SMILES,"hERG current change (%, negative = inhibition) at 10uM [%]"
1,O=Cc1ccc2noc(-c3ccc(Cl)cc3)c2c1,-1.22
2,O=C(Nc1ccccc1F)Nc1ccccc1N1CCCCC1,-7.83
3,Cc1cc(C(=O)NNC(=O)c2ccc(C(F)(F)F)cc2)no1,14.1
4,COc1ccccc1N1CCN(C(=O)Cc2cccs2)CC1,-8.91
5,Cc1ccccc1-c1cccc([C@@H]2C[C@H]3CN(Cc4cccnc4)C(=O)[C@]34CCCN24)c1,-59
6,CC(O)(CS(=O)(=O)Cc1ccccc1)c1ccc(Cl)cc1 (stereo not drawn),4.72
7,COCCn1c(-c2ccc(OC)cc2)nc2oc3cc(OC)ccc3c(=O)c2c1=O,-12.6
8,Cc1noc(C)c1COc1ccc(CC(=O)NC2CCCCCC2)cc1,39.5
9,COc1ccc(OC)c(NC(=O)CN(c2ccc(C)cc2)S(=O)(=O)c2c(C)noc2C)c1,3.24
10,O=C(NCCc1cn[nH]c1)C1CCC(=O)N(CCc2cccc(F)c2)C1 (stereo not drawn),25.1
11,O=C(CSc1ccc(Cl)cc1)N1N=CCC1c1ccccc1 (stereo not drawn),-6.77
12,CS(=O)(=O)C1=NSC2=NC(=O)/C(=C\c3cccn3-c3ccccc3Cl)C(=N)N21,12.8
13,O=C(O)c1ccc(NC(=O)c2ccc(Cl)cc2)c(NC(=O)c2ccc(Cl)cc2)c1,13.5
14,Cc1cc(=O)oc2cc(OCC(=O)NC3CCN(Cc4ccccc4)CC3)ccc12,-63.9
15,O=C1CN(O)C(c2ccccc2)=c2cc(Br)ccc2=N1,1.78
16,CCOC(=O)c1c(O)c2c([nH]c1=O)CCCC2,5.06
17,COc1cccc(CNc2nc3ccccc3n2CCN2CCCCC2)c1OC,-63.6
18,CN(CCOc1ccc(Br)cc1)CC(=O)Nc1cccc(S(=O)(=O)NC2=NCCC2)c1,-11.4
19,CC(=O)NCCc1c[nH]c2ccc(OCC(O)CNC(C)(C)C)cc12.O=C(O)c1ccccc1 (stereo not drawn),17.5
20,COc1ccc2c(c1)CCC/C2=N\Nc1nc(C(=O)NN)cs1,9.76
21,COc1cc(OC)cc(C(=O)Nc2nc3ccc(S(C)(=O)=O)cc3s2)c1,21.3
22,CSc1ccc(N=Nc2c(C)[nH]n(C)c2=O)cc1,-6.31

row,SMILES,"hERG current change (%, negative = inhibition) at 10uM [%]"
1,CCc1ccc(CC2S/C(=C(\C#N)C(C)=O)NC2=O)cc1 (stereo not drawn),12.4
2,C=CCn1c(CSc2nc3ccccc3s2)nnc1SCC(=O)NCc1ccco1,-17.6
3,CCN(CC)c1ccc(NC(=O)c2ccc3c(c2)c(C)c(C)n3C)cc1,-5.69
4,O=C(Nc1ccc(Nc2ccncc2)cc1)c1ccc([N+](=O)[O-])cc1,-59.5
5,COc1ccc(NC(=O)COc2ccc3oc(=O)cc(C)c3c2)cc1,0.254
6,Cn1c(N)c(C(=O)COC(=O)COc2ccc(Cl)cc2)c(=O)n(C)c1=O,-23.1
7,CC(C)C(C)NC(=O)COc1nc2ccccc2nc1N(C)C1CCCCC1 (stereo not drawn),24.3
8,CCN(CC)CCCN(Cc1cc2cc3c(cc2[nH]c1=O)OCO3)C(=S)NCCCOC,-5.13
9,CCOC(=O)c1ccc(S(=O)(=O)N2CCN(CC(=O)NC(=O)NC(C)(C)C)CC2)cc1,-15.4
10,O=C(NNS(=O)(=O)c1ccccc1C(F)(F)F)c1cc2ncc(C(F)(F)F)cc2s1,12.2
11,CCOc1ccc(C(=O)NCC2CCCN2S(=O)(=O)c2cccs2)cc1 (stereo not drawn),-20.1
12,COc1ccc(N=C2C(=Nc3ccc(OC)cc3)N(c3ccc(OC)cc3)C(=S)N2c2ccccc2)cc1,11.2
13,CCCNC(=O)CN(c1cccc(F)c1)S(C)(=O)=O,1.87
14,CC1CCCN(CCCNC(=O)CN2C(=O)COc3ccc(S(=O)(=O)N4CCOCC4)cc32)C1 (stereo not drawn),21.1
15,COc1ccc(S(=O)(=O)Cc2ccc(C(=O)NC3CCCC3)o2)cc1,-3.4
16,CCOc1ccc(NC2OC(C)C(O)C(O)C2O)c([N+](=O)[O-])c1 (stereo not drawn),14.9
17,COC(=O)c1ccc2c(c1)N(Cc1ccccc1F)C(=O)c1ccccc1S2=O (stereo not drawn),-4.83
18,O=C(Cc1csc(N2CCOCC2)n1)N/N=C/c1ccc(Cl)cc1Cl,-15
19,COc1ccc([C@H]2C=C(C(=O)O)O[C@@H](OCc3ccc(CO)cc3)C2)cc1,15.4
20,CCN1CCc2nc(NC(=O)CC(c3ccccc3)c3ccccc3)sc2C1,-4.86
21,Cc1cc2oc(C(=O)N3CCN(Cc4ccccc4)CC3)c(C)c2cc1C,1.76
22,CC(C)Oc1ccc(CNCC2(O)CCOC(C)(C)C2)cc1 (stereo not drawn),-5.26

row,SMILES,"hERG current change (%, negative = inhibition) at 10uM [%]"
1,CCOc1ccc(N2CC(C(=O)Nc3ccc(F)cc3F)CC2=O)cc1 (stereo not drawn),-3.45
2,COc1ccc(OC)c(C2CC(=O)c3c([nH]c(C(=O)OC(C)C)c3C)C2)c1 (stereo not drawn),7.28
3,Cc1ccc(-c2nnn(CC(=O)N(Cc3ccco3)C(C(=O)NC3CCCC3)c3cccs3)n2)o1 (stereo not drawn),5.76
4,CN1OC(CC(=O)O)N(c2ccc(Cl)cc2)C1=O (stereo not drawn),27.4
5,O=C(COc1cccc(NC(=O)c2cccs2)c1)c1ccc(F)cc1,-33.8
6,O=c1cc(CN2CCN(c3ccc(F)cc3)CC2)c2cc3c(cc2o1)CCCC3,12.4
7,N#CCCN(Cc1cccnc1)C(=S)Nc1ccc(OC(F)F)cc1,-78.2
8,Cc1cccc(-n2c(SCC(N)=O)nnc2-c2ccco2)c1,-1.07
9,Cc1ccccc1N=CC1=C(O)c2ccccc2C1=O,2.26
10,Cc1cccc(C)c1OCC(=O)Nc1ccc(NC(=O)c2ccco2)cc1,2.17
11,CCc1ccc(CN(C)Cc2nc(Cc3cccc(C(F)(F)F)c3)no2)nc1,-28.1
12,O=C(CSc1nnc(-c2ccncc2)n1CCc1ccccc1)N1CCCC1,12.9
13,CN(C)S(=O)(=O)N(CC(=O)Nc1ccc(S(=O)(=O)N2CCCC2)cc1)c1ccccc1,-24.6
14,O=C(c1cc2cc(Cl)ccc2[nH]1)N1CCc2ccccc2C1,18.5
15,O=C(CSc1ncnc2c1cnn2-c1ccccc1)NCC1CCCO1 (stereo not drawn),-22.9
16,N#CCc1nc2n(n1)Cc1ccccc1-2,-22.4
17,COC(=O)c1cc(-c2ccc(OC)cc2)nc2nc(SC)[nH]c(=O)c12,25.7
18,O=C(Nc1cccc(Br)c1)c1ccc(CN2CCc3ccccc3C2)cc1,-1.55
19,COc1ccccc1-c1nnc(SCC(=O)Nc2ccccc2)o1,-13.5
20,c1ccc(-c2nnc(C3CC(c4cccnc4)=NO3)o2)cc1 (stereo not drawn),6.5
21,CCCCCCCCc1nc(SC(C)C(=O)O)n[nH]1 (stereo not drawn),5.98
